# “And” between values parts separate entries of the source, which are not always exact repeats. Identical values can stand only once. Like-named read-outs stand apart in the source and are kept apart here.
# Experiments:
# [1] = target: T1, mu opioid receptor (Cavia porcellus, UniProt A0ACM8Q262); test: Inhibition of DAMGO-stimulated [35S]GTPγS binding in guinea pig caudate; type: biochemical; details: for Ki (radioligand)/Ki (GTPγS) binding ratio, mu receptor: mu receptor assays
# [2] = target: T2, delta opioid receptor (Cavia porcellus, UniProt A0A286XTF2); test: biochemical; type: biochemical, guinea pig
# [3] = target: T3, kappa opioid receptor (Cavia porcellus, UniProt P41144); type: biochemical, guinea pig; design: from tissue; details: for Ki (radioligand)/Ki (GTPγS) binding ratio, kappa receptor: kappa receptor assays
# [4] = target: T3, kappa opioid receptor; test: Literature kappa binding assay with [3H]U69593, guinea pig brain membranes (ref. 7); design: from tissue; details: ratio of Ki values taken from ref. 7
# [5] = target: T1, mu opioid receptor; details: data taken from ref. 7; guinea pig brain membranes; read-out: Ki [3H]DAMGO (μ); cited from earlier work
# [6] = target: T3, kappa opioid receptor; test: Library screening in competitive binding against kappa selective ligand [3H]U69,593 at 100 nM; design: from tissue; species or system guinea pig; details: for % Inhibition: Kappa Receptor Assay, library compounds of formula (I) given by R1, R2, R3 (acid), screened at 100 nM; for % Inhibition at 100 nm: versus kappa opioid selective ligand [3H]U69,593, selected library compounds
# [7] = target: T1, mu opioid receptor; details: data taken from ref. 1, cited from earlier work
# [8] = target: T2, delta opioid receptor; details: data taken from ref. 1, cited from earlier work
# [9] = target: T3, kappa opioid receptor; design: from tissue; details: data taken from ref. 1, cited from earlier work
# [10] = target: mu opioid receptor (Rattus norvegicus, UniProt P33535); design: using rat brain membranes prepared as described; from tissue; host or cells: rat brain membranes; details: data taken from ref. 1, cited from earlier work
molecule,measurement,setting,value
"CN1CCC2(c3cccc(O)c3)Cc3ccccc3CC2(C)C1 (racemic) [Compound 7, (±)-1,2,3,4,4a,5,10,10a-octahydro-4a-(3-hydroxyphenyl)-2,10a-dimethylbenzo-[g]isoquinoline]","slope factor (−nH / N), DAMGO",[1]; [35S]GTPγS assay,(0.94 ± 0.06)
same,Ki,[2],222 ± 30.7 nM
same,"slope factor (−nH / N), SNC80",[2]; [35S]GTPγS assay,(0.78 ± 0.09)
same,"slope factor (−nH / N), U69,593",[3]; [35S]GTPγS assay,(1.10 ± 0.14)
"Oc1ccc2c3c1O[C@H]1c4[nH]c5c(c4C[C@@]4(O)[C@@H](C2)N(CC2CC2)CC[C@]314)C[C@@]1(O)[C@H]2Cc3ccc(O)c4c3[C@@]1(CCN2CC1CC1)[C@H]5O4 [1 (nor-BNI), norbinaltorphimine]",δ/κ,[4],150
same,μ/κ,[4],181
same,"slope factor (−nH / N), DAMGO",[1]; [35S]GTPγS assay,(1.02 ± 0.09)
same,"Ki (radioligand)/Ki (GTPγS) binding ratio, mu receptor",[1],2.8
same,Ki,[5],47.2 ± 3.3 nM
same,"slope factor (−nH / N), SNC80",[2]; [35S]GTPγS assay,(1.18 ± 0.12)
same,"slope factor (−nH / N), U69,593",[3]; [35S]GTPγS assay,(0.97 ± 0.12)
same,Ki,"[3]; guinea pig caudate, Ki ± SD, read-out: Ki, inhibition of U69,593 (κ) stimulated [35S]GTPγS binding",0.038 ± 0.005 nM
same,"Ki (radioligand)/Ki (GTPγS) binding ratio, kappa receptor",[3],7.36
"CC1C2CCCC1(c1cccc(O)c1)CCN2CCc1ccccc1 (stereo not drawn) [Compound 5c, 5-(3-Hydroxyphenyl)-9β-methyl-2-(2′-phenylethyl)-2-azabicyclo[3.3.1]nonane]","increase in antagonist potency at mu, N-phenethyl vs N-methyl (5b)",[1]; [35S]GTPγS assay,63 fold
same,Ki,"[1]; guinea pig caudate, Ki ± SD, read-out: Ki, inhibition of DAMGO (μ) stimulated [35S]GTPγS binding",0.338 ± 0.028 nM
same,"Ki (radioligand)/Ki (GTPγS) binding ratio, mu receptor",[1],43
same,"increase in antagonist potency at delta, N-phenethyl vs N-methyl (5b)",[2]; [35S]GTPγS assay,60 fold
same,Ki,"[2]; guinea pig caudate, Ki ± SD, read-out: Ki, inhibition of SNC80 (δ) stimulated [35S]GTPγS binding",12.6 ± 1.01 nM
same,"increase in antagonist potency at kappa, N-phenethyl vs N-methyl (5b)",[3]; [35S]GTPγS assay,70 fold
same,"Ki (radioligand)/Ki (GTPγS) binding ratio, kappa receptor",[3],63
C[C@H]1CN(CC[C@H](O)C2CCCCC2)CC[C@@]1(C)c1cccc(O)c1 [Compound 5d],"Ki (radioligand)/Ki (GTPγS) binding ratio, mu receptor",[1],15
same,"Ki (radioligand)/Ki (GTPγS) binding ratio, kappa receptor",[3],85
CC(C)[C@H](CN1CC[C@@](C)(c2cccc(O)c2)[C@@H](C)C1)NC(=O)CCc1ccc(O)cc1 [Compound 9],% Inhibition,[6],11%
same,% Inhibition at 100 nm,[6],11%
O=C1CC[C@@]2(O)[C@H]3Cc4ccc(O)c5c4[C@@]2(CCN3CC2CC2)[C@H]1O5 [naltrexone],"slope factor (−nH / N), DAMGO","[1]; [35S]GTPγS assay, listed as 1, naltrexone",(1.00 ± 0.22)
"(+)-N-[trans-4-phenyl-2-butenyl]-(3R,4R)-dimethyl-4-(3-hydroxyphenyl)piperidine [Compound 5a]","slope factor (−nH), DAMGO",[7],(1.06 ± 0.07)
same,Ki,"[7]; read-out: Ki, inhibition of DAMGO (μ) stimulated [35S]GTPγS binding",0.039 ± 0.003 nM
same,"slope factor (−nH), SNC80",[8],(1.19 ± 0.08)
same,Ki,"[8]; read-out: Ki, inhibition of SNC80 (δ) stimulated [35S]GTPγS binding",1.48 ± 0.094 nM
same,"Ki (radioligand)/Ki (GTPγS) binding ratio, mu receptor",[1],19
same,"slope factor (−nH), U69,593",[9],(1.07 ± 0.06)
same,Ki,"[9]; read-out: Ki, inhibition of U69,593 (κ) stimulated [35S]GTPγS binding",1.04 ± 0.061 nM
same,slope factor (-nH) [3H]DAMGO,[10],(0.89 ± 0.09)
same,Ki,[10]; read-out: Ki [3H]DAMGO (μ),0.74 ± 0.05 nM
same,"Ki (radioligand)/Ki (GTPγS) binding ratio, kappa receptor",[3],118
"N-{2′-[3-(4-Hydroxyphenyl)-N-methylpropanamido]ethyl}-(3R,4R)-dimethyl-4-(3-hydroxyphenyl)piperidine [Compound 21]",% Inhibition,[6],0%
"N-{2′-[3-(4-Hydroxyphenyl)propanamido]ethyl}-(3R,4R)-dimethyl-4-(3-hydroxyphenyl)piperidine [Compound 19]",% Inhibition,"[6]; listed as H/H/PP6, 0.1 µM",14% and 11%
same,% Inhibition at 100 nm,[6],11%
"N-{(2′S)-[3-(2-Hydroxyphenyl)propanamido]-3′-methylbutyl}-(3R,4R)-dimethyl-4-(3-hydroxyphenyl)piperidine [Compound 12]",% Inhibition,[6],18%
same,% Inhibition at 100 nm,[6],25%
"N-{(2′S)-[3-(3,4-Dihydroxyphenyl)propanamido]-3′-methylbutyl}-(3R,4R)-dimethyl-4-(3-hydroxyphenyl)piperidine [Compound 16]",% Inhibition at 100 nm,[6],31%
"N-{(2′S)-[3-(3-Hydroxyphenyl)propanamido]-3′-methylbutyl}-(3R,4R)-dimethyl-4-(3-hydroxyphenyl)piperidine [Compound 11]",% Inhibition,[6],20%
same,% Inhibition at 100 nm,[6],20%
"N-{(2′S)-[3-(3-Methoxy-4-hydroxyphenyl)propanamido]-3′-methylbutyl}-(3R,4R)-dimethyl-4-(3-hydroxyphenyl)piperidine [Compound 17]",% Inhibition at 100 nm,[6],42%
"N-{(2′S)-[3-(4-Fluorophenyl)propanamido]-3′-methylbutyl}-(3R,4R)-dimethyl-4-(3-hydroxyphenyl)piperidine [Compound 15]",% Inhibition at 100 nm,[6],26%
"N-{(2′S)-[3-(4-Hydroxyphenyl)-N-methylpropanamido]-2′-phenylethyl}-(3R,4R)-dimethyl-4-(3-hydroxyphenyl)piperidine [Compound 23]",% Inhibition,[6],7%
same,% Inhibition at 100 nm,[6],7%
"N-{(2′S)-[3-(4-Hydroxyphenyl)-N-methylpropanamido]propyl}-(3R,4R)-dimethyl-4-(3-hydroxyphenyl)piperidine [Compound 22]",% Inhibition,[6],1%
same,% Inhibition at 100 nm,[6],1%
"N-{(2′S)-[3-(4-Hydroxyphenyl)propanamido]-3′-methylbutyl}-(3R,4R)-dimethyl-4-(3-hydroxyphenyl)piperidine [Compound 8]",% Inhibition,[6],70%
"N-{(2′S)-[3-(4-Hydroxyphenyl)propanamido]propyl}-(3R,4R)-dimethyl-4-(3-hydroxyphenyl)piperidine [Compound 20]",% Inhibition,[6],11%
same,% Inhibition at 100 nm,[6],20%
"N-{(2′S)-[(3-Phenylpropanamido)-3′-methyl]butyl}-(3R,4R)-dimethyl-4-(3-hydroxyphenyl)piperidine [Compound 10]",% Inhibition,[6],28%
same,% Inhibition at 100 nm,[6],28%
"N-{(2′S)-[(4-Hydroxyphenyl)acetamido]-3′-methylbutyl}-(3R,4R)-dimethyl-4-(3-hydroxyphenyl)piperidine [Compound 13]",% Inhibition,[6],6%
same,% Inhibition at 100 nm,[6],6%
"N-{(2′S)-[trans-3-(4-Hydroxyphenyl)acrylamido]-3′-methylbutyl}-(3R,4R)-dimethyl-4-(3-hydroxyphenyl)piperidine [Compound 14]",% Inhibition,[6],15%
